# Laboratory results reported in the supplement of paper PMC9446081.
# Screen size: about 39,000 compounds; about 220 (0.56%) showed activity. The list shows a part of the results.
# Test system: Escherichia coli K-12 BW25113
# Assay: relative growth (OD600 normalised to plate interquartile mean) (fraction); higher = less growth inhibition, active = 0.2 or less
# Settings: 50 µM; LB; incubation time: overnight (16-24 h)
# 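Note: static incubation at 37 °C against the wild-type strain, values averaged over two biological replicates.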
row,SMILES,relative growth
1,C[C@@H]1CN([C@@H](C)CO)S(=O)(=O)c2ccc(C#CC3CC3)cc2O[C@H]1CN(C)Cc1ccccc1F,inactive: 0.917
2,Cc1noc(C)c1S(=O)(=O)Nc1ccc2c(c1)CC(=O)N([C@@H](C)CO)C[C@H](C)[C@@H](CN(C)Cc1ccc(-c3ccccc3)cc1)O2,inactive: 1.04
3,CN(C)Cc1cn(CC[C@H]2CC[C@@H](NS(=O)(=O)c3ccccc3)[C@@H](CO)O2)nn1,inactive: 0.972
4,CN(C)CC(=O)N[C@H]1CC[C@H](CC(=O)NCCN2CCCCC2)O[C@H]1CO,inactive: 1.01
5,C[C@@H]1CN([C@H](C)CO)C(=O)Cc2cc(NS(C)(=O)=O)ccc2O[C@H]1CN(C)C,inactive: 0.974
6,C[C@@H]1CN([C@H](C)CO)C(=O)c2cccc(NC(=O)Nc3ccc4c(c3)OCO4)c2O[C@@H]1CN(C)S(C)(=O)=O,inactive: 0.984
7,CN(C)C(=O)Cn1c(=O)oc2ccccc21,inactive: 1.02
8,C[C@@H]1CN([C@H](C)CO)C(=O)c2cc(NS(=O)(=O)c3ccccc3)ccc2O[C@@H]1CN(C)S(=O)(=O)c1cccs1,inactive: 1.01
9,COc1ccc(S(=O)(=O)Nc2ccc3c(c2)CC(=O)N([C@@H](C)CO)C[C@H](C)[C@@H](CN(C)S(=O)(=O)c2c(C)noc2C)O3)cc1,inactive: 1.02
10,Cc1ccc(-c2nc(Nc3ccccc3F)sc2C)cc1,inactive: 0.941
11,COc1ccccc1-c1cnc2c(c1)C(=O)N([C@@H](C)CO)C[C@@H](C)[C@H](CN(C)C(=O)c1ccncc1)O2,inactive: 0.993
12,COc1ccc(C#Cc2cnc3c(c2)C(=O)N([C@@H](C)CO)C[C@@H](C)[C@@H](CN(C)C(=O)CC2CC2)O3)cc1,inactive: 1.02
13,Nc1ccc(OCc2ccccc2)cc1,inactive: 0.997
14,C[C@@H]1CN([C@@H](C)CO)C(=O)c2cccc(NC(=O)NC3CCCCC3)c2O[C@@H]1CN(C)S(C)(=O)=O,inactive: 0.984
15,CCCN(CCC)S(=O)(=O)c1ccc(C(=O)O)cc1,inactive: 1.04
16,C[C@H](CO)N1C[C@H](C)[C@@H](CN(C)Cc2ccccc2C(F)(F)F)OCc2ccccc2-c2ccccc2C1=O,inactive: 1.04
17,COCC#Cc1cnc2c(c1)C(=O)N([C@H](C)CO)C[C@@H](C)[C@@H](CN(C)C(=O)CN1CCOCC1)O2,inactive: 0.983
18,C[C@@H]1CCCCO[C@@H](CN(C)S(=O)(=O)c2ccc(F)cc2)[C@@H](C)CN([C@@H](C)CO)C(=O)c2cc(NC(=O)NC3CCCCC3)ccc2O1,inactive: 0.973
19,C[C@H]1CN([C@@H](C)CO)C(=O)Cc2cc(NC(=O)Cc3ccccc3)ccc2O[C@@H]1CN(C)S(=O)(=O)c1ccccc1,inactive: 0.993
20,O=C(O)c1ccc(N[C@@H]2O[C@H](CO)[C@@H](O)[C@@H]2O)cc1,inactive: 0.978

row,SMILES,relative growth
1,COc1ccc(NC(=O)N(C)C[C@H]2OCCCC[C@@H](C)Oc3ccc(NS(=O)(=O)c4ccc(F)cc4)cc3C(=O)N([C@H](C)CO)C[C@H]2C)cc1,inactive: 0.998
2,COc1ccc(NC(=O)Nc2cccc3c2O[C@@H](CN(C)Cc2ccc(C(F)(F)F)cc2)[C@H](C)CN([C@H](C)CO)C3=O)cc1,inactive: 0.719
3,C[C@@H]1CN([C@@H](C)CO)C(=O)Cc2cc(NC(=O)NC3CCCCC3)ccc2O[C@@H]1CN(C)Cc1ccc(Oc2ccccc2)cc1,inactive: 1.03
4,COc1ccc(NC(=O)N(C)C[C@H]2OCCCC[C@@H](C)Oc3ccc(NS(=O)(=O)c4c(C)noc4C)cc3C(=O)N([C@H](C)CO)C[C@@H]2C)cc1,inactive: 0.999
5,CO[C@H](CN(C)S(=O)(=O)c1ccc(F)cc1)[C@@H](C)CN([C@@H](C)CO)S(=O)(=O)c1cccc(Cl)c1,inactive: 1.02
6,COc1ccc(CNC(=O)C[C@H]2CC[C@H]3[C@@H](COc4ccc(NC(=O)C5CC5)cc4C(=O)N3C)O2)cc1,inactive: 0.985
7,Cc1cc(C(=O)Nc2cccc3c2O[C@H](CN(C)Cc2ccncc2)[C@H](C)CN([C@H](C)CO)C3=O)n(C)n1,inactive: 1.01
8,Cc1ccccc1S(=O)(=O)N1C[C@H](O)COC[C@H]2O[C@H](CC(=O)N3CCN(C)CC3)CC[C@@H]21,inactive: 0.998
9,CC1CC2C3CCC4=CC(=O)C=CC4(C)C3(F)C(O)CC2(C)C1(O)C(=O)CO (stereo not given),inactive: 1.01
10,O=C(N[C@@H]1CC[C@@H](CCNS(=O)(=O)c2ccc(F)cc2)O[C@H]1CO)C1CC1,inactive: 1.01
11,Cc1ccccc1S(=O)(=O)N1C[C@@H](O)COC[C@@H]2O[C@H](CC(=O)N3CCOCC3)CC[C@H]21,inactive: 1.01
12,O=C(O)c1cc2ccccc2c(Cc2c(O)c(C(=O)O)cc3ccccc23)c1O.OCCOCCN1CCN(C(c2ccccc2)c2ccc(Cl)cc2)CC1,inactive: 1.17
13,C[C@@H]1CN([C@H](C)CO)C(=O)Cc2cc(NS(C)(=O)=O)ccc2O[C@@H]1CN(C)S(=O)(=O)c1cccs1,inactive: 0.992
14,CN1CCN(C(=O)C[C@@H]2CC[C@@H](NC(=O)Cc3ccccn3)[C@@H](CO)O2)CC1,inactive: 1
15,C[C@@H]1CN([C@@H](C)CO)C(=O)c2cc(NC(=O)C3CC3)ccc2O[C@H]1CN(C)S(=O)(=O)c1ccc(Cl)cc1,inactive: 1.02
16,COc1ccc(cc1)S(=O)(=O)N1CC[C@]2(CC1)CN([C@H](CO)c1c2c2ccc(cc2n1C)OC)C(=O)CN(C)C,inactive: 0.982
17,COc1ccc(NC(=O)N(C)C[C@@H]2Oc3ccc(NC(=O)Nc4cccc5ccccc45)cc3CC(=O)N([C@H](C)CO)C[C@H]2C)cc1,inactive: 1.01
18,O=C(C[C@H]1CC[C@H]2[C@@H](COC[C@H](O)CN2Cc2cccc(C(F)(F)F)c2)O1)NCCc1ccncc1,inactive: 1.02
19,COCC(=O)N[C@H]1C=C[C@@H](CC(=O)N2CCCCC2)O[C@@H]1CO,inactive: 0.971
20,Cc1noc(C)c1NC(=O)Nc1ccc2c(c1)C(=O)N([C@H](C)CO)C[C@H](C)[C@H](CN(C)S(C)(=O)=O)O2,inactive: 0.97
